In ChEMBL document CHEMBL4888484, “Replenishing the malaria drug discovery pipeline: Screening and hit evaluation of the MMV Hit Generation Library 1 (HGL1) against asexual blood stage Plasmodium falciparum ,using a nano luciferase reporter read-out” (2022):
The whole screen tested about 150,000 compounds, of which about 540 (0.36%) showed an effect of 50% or more. The list shows a part of the results.

Each compound was assayed on Plasmodium falciparum (assay: Primary screen in NF54 nanoGlo assay, in single point, at 2uM, 72h; a lower Z score goes with more inhibition). Conditions: timepoint 72 hour.
Type: functional, Erythrocyte

Structure (SMILES)	% Inhibition [%]	Z score
CO[C@@]1(C)CCCN(Cc2ccsc2)C1	-6	1.06
Cc1ncnc(N2CCC(N3CCC[C@H](C(=O)NCc4ccccn4)C3)CC2)c1C	-11	2.17
O=C(COc1ccccc1)N1CCCN(C2=Nc3cc(C(F)(F)F)ccc3Oc3ccccc32)CC1	-11	1.73
CC(C)=CC1C(C(=O)N2CCN(Cc3ccc4c(c3)OCO4)CC2)C1(C)C (centres undefined)	27	-3.07
CO[C@H]1COC[C@@H]1NC(=O)c1ccc(-c2ccc(C)o2)cc1	-19	3.33
CCCc1nc(CN(CC)C(=O)CCc2ccc3c(c2)OCO3)no1	-5	0.67
Cc1nc(C(F)(F)F)c(CN(C)CC2(O)CCOCC2)s1	-1	0.12
O=S(=O)(Cc1cc(F)ccc1F)N1CC[C@H](Oc2cccnn2)C1	-9	1.38
CC1CC(C)CN(S(=O)(=O)c2ccc(C(=O)N3CC(=O)Nc4ccccc43)cc2)C1 (centres undefined)	7	-0.91
COc1cc2c(cc1C(=O)N1C[C@@H]3c4ccccc4OC[C@]3(CO)C1)CCC2	-7	0.88
C[C@@H](Cc1cccs1)NC(=O)c1ccncc1	-13	1.86
CCCS(=O)(=O)N1CC[C@H](N2CCN(C)CC2)C1	-5	0.6
Cn1cc(Nc2cccc(NC(=O)C3CC4CCC3O4)c2)cn1 (centres undefined)	-5	0.63
Cc1cc(F)ccc1CC(C)NS(=O)(=O)N1CCCC(C(=O)O)C1 (centres undefined)	1	-0.1
CC(=O)N1CC2(CCN(Cc3ccc(CC(C)C)s3)CC2)C[C@H]1C(=O)O	-3	0.33
CC[C@H](NS(=O)(=O)N1CCCC1)c1ccc(C)cn1	-14	2.14
COc1ccc(CCC(=O)N2CCC3(CC2)C[C@H](CN2CCOCC2)N(C)C3)cc1	4	-0.54
Cc1nc2ccc(NC(=O)c3cn(Cc4ccccn4)nn3)cc2s1	-18	1.96
O=C(CCC(F)(F)F)NCC[C@H]1CCCCN1C1CCCC1	-11	1.87
O=C(NC1CC2CCC1C2)C1CC(=O)N(c2ccccc2)C1 (centres undefined)	-1	0.09
Cc1ccccc1CNC(=O)CCc1ccc2c(ccn2C)c1	-19	2.13

Structure (SMILES)	% Inhibition [%]	Z score
Cc1c(-c2ccnc(N3CCCC3)n2)cnc2nc(C(F)(F)F)nn12	-6	0.73
CO[C@@]12CC[C@@H](Oc3ccccn3)C[C@@H]1N(C(=O)c1c[nH]c(=O)[nH]1)CC2	-14	1.81
O=C(NC(Cc1ccccn1)[C@H]1C[C@H](O)C1)c1ccn2cnnc2c1 (some centres undefined)	2	-0.36
O=C(c1cc(=O)[nH]c2ccc(F)cc12)N1CCCCCC1	-11	1.35
COc1ccccc1N1CCN(C(=O)C2CCN(S(=O)(=O)Cc3ccc(Cl)cc3)CC2)CC1	-12	2.28
CCc1cc(C(=O)N2C[C@H]3CCC[C@@H](C3)C2)ccn1	-6	1.18
Cc1ccc(C)c(NC(=O)CN2CCN([C@H]3CCOC3)CC2)c1	4	-0.44
COCCn1nnc2cc(S(=O)(=O)N3CCCC[C@H]3C(=O)Nc3ccccc3Cl)ccc21	-35	3.06
COc1ccc(OC)c([C@@H]2CCCN2Cc2nc3cc(Cl)ccc3c(=O)[nH]2)c1	-26	4.9
Cn1cncc1CNCc1cc(Br)c2c(c1)OCO2	-6	0.75
CC(=O)N[C@H]1CN(C(=O)c2cnn3ccccc23)C[C@@H]1c1ccc(C)cc1	5	-0.67
Cc1nn(C)c(C)c1-c1cc(C(=O)NCCCN2CCCC2=O)n(C)n1	-3	0.27
COC(=O)c1ccc(Cn2nc(C3CCN(S(C)(=O)=O)CC3)n(C)c2=O)cc1	-4	0.62
C/C(=C/c1ccccc1)C(=O)N1CCC[C@H](n2cnc3ccccc3c2=O)C1	-9	1.46
CCc1cccc2c(C(CC(=O)NC(C)c3ccccc3)c3ccccc3)cn(CC)c12 (centres undefined)	-2	0.37
O=C(NCc1ccc(F)cc1)c1cc(S(=O)(=O)N2CCOCC2)ccc1N1CCCCC1	-11	1.9
CN(CC(=O)N1CCc2ccccc2C1)c1ccccc1	-9	1.82
CC1(C)CN(C(=O)C2CCCCCC2)CCCO1	-1	0.15
O=C(Nc1nccc2ccncc12)c1n[nH]c(=O)c2ccccc12	-17	2.1
O=C(NCc1ccc(C2CC2)cc1)N1CCN2CCOC[C@@H]2C1	7	-1.44
Cc1cc(C)n2ncc(CN3C[C@@H]4CC[C@H]3CN(Cc3ccccc3)C4)c2n1	-3	0.32

Structure (SMILES)	% Inhibition [%]	Z score
COc1ccc(COc2ccc(=O)n(-c3ccc(C(=O)Nc4ccc(C)c(C)c4)cc3)n2)cc1	-10	1.7
CC(C)C(=O)N1CC[C@H](Nc2ccc3nccnc3n2)C1	6	-0.76
C=CC[C@H](NC(=O)OCc1ccccc1)c1ccccc1	7	-1.39
OC(CF)c1cccc(-c2noc([C@]34CCC[C@H]3OCC4)n2)c1 (some centres undefined)	-9	1.47
NC(=O)c1ccc(CNc2ncnc3oc(-c4ccccc4)cc23)o1	26	-3.55
O=C(O)C1(Oc2ccc3c(c2)CCC3)CCN(c2cnccn2)CC1	-9	1.45
O=C(c1ncccc1N1CCCCC1)N1CCc2[nH]nc(-c3ccno3)c2C1	-7	0.65
O=S(=O)(CCC1CCCC1)N1CC[C@H](O)[C@@H](C2CCCC2)C1	-9	1.42
Cc1nn(-c2ccc(Br)cc2)cc1-c1noc(C(=O)N[C@H]2CCCc3ccccc32)n1	-5	0.72
CCC(=O)NC1CCC(Nc2nc(C)nc3c2c(C)nn3-c2ccccc2)CC1 (centres undefined)	4	-0.55
CCN1CCN(C(=O)C(C)(C)C#N)[C@@H](C)C1=O	-6	1.1
CCc1ccc2c(c1)C1OCCCC1C(c1ccc(F)cc1)N2 (centres undefined)	1	-0.21
CCCc1cc(NC(=O)C[C@@H]2C[C@H]2c2ccccc2)n[nH]1	-12	1.59
CCCn1cnnc1CNC(=O)c1ccc(-c2ccc(=O)n(C)n2)cc1	2	-0.33
C[C@H]1C[C@@H]1c1cc(N)n(-c2ccccc2)n1	-2	0.2
COC[C@@]12CCN(C(=O)Nc3ccccc3)C[C@@H]1CN(S(C)(=O)=O)C2	-23	2.71
O=C(c1cn2cccnc2n1)N1CCC(c2nccn2CC2CCC2)CC1	-10	1.74
O=C(NCc1ccc(F)cc1)c1cncnc1C1CC1	5	-0.58
COCCN(Cc1c(-c2ccccc2)nn(C)c1Oc1ccc(OC)cc1)C[C@H](O)COC	10	-1.28
CCc1nnc2n1C[C@@H](NCc1ccccc1OCC(=O)NC)CC2	-13	1.2
O=C(c1ccno1)N1CC[C@H](Oc2cnccn2)C1	2	-0.21

Structure (SMILES)	% Inhibition [%]	Z score
CN(C)C(=O)c1cccc(Oc2nccs2)c1	32	-3.62
COc1cccc(C(=O)NC[C@H]2c3cc(OC)c(OC)cc3CCN2Cc2ccc(C)cc2)c1	11	-1.43
Cc1cccc(C)c1OCC(=O)N[C@@](C)(CO)C(C)C	-6	0.88
O=C(N[C@@H]1COCC[C@@H]1OCC1CC1)C1CCN(Cc2ccco2)CC1	2	-0.42
CCN1CCNC(=O)[C@@H]1Cc1nc(-c2cccnn2)no1	-13	1.68
Cc1cccc(-n2nc(CC(C)C)nc2CNC(=O)N(C)C)n1	9	-1.79
Cc1ccc([C@@H]2CC(c3cccn3C)=NN2C(=O)CN(CCN2CCOCC2)C(=O)c2cccc(F)c2)cc1	12	-1.89
O=C(Cn1cccc1C(=O)c1ccccc1)NC1CCN(Cc2ccccc2)CC1	-12	2.35
O=S(=O)(c1ccccc1)N1CCC(OC2CCN(Cc3cccnc3)CC2)CC1	-10	1.23
CCn1nccc1C(=O)N(Cc1ccccc1)CC1(C)CCOCC1	-7	1.09
CCc1onc(C)c1NC(=O)NCc1cc(C2CC2)nn1C	-19	1.88
CCOC(=O)c1c(C)n(-c2ccc(OC)cc2)c2ccc(OC(=O)C#Cc3ccccc3)cc12	-3	0.44
CCOC(=O)C(F)C1CCN(Cc2c(C)nsc2C)C1 (centres undefined)	-11	1.48
COc1cccc(NC(=O)C2=CCN(Cc3ccc(Cl)cc3)CC2)c1	21	-2.67
O=C(Nc1nncs1)c1ccc(NCCOc2ccccc2)nc1	-9	0.87
O=C1NCCC[C@H]1C(=O)c1cc(-c2ccccc2)nc2ccccc12	-11	1.57
CN1CCN([C@H]2CCCCN(C(=O)CCc3ccc(F)cc3)C2)CC1	-10	0.91
CCOc1ccc([C@H](CC)NCc2cnc(C)nc2)cc1	-5	0.79
COc1ccc(NC(=O)Cc2nnc(-c3ccncc3)o2)cc1Cl	4	-0.39
